# The full ranking holds about 33,000 sequences; the median of “E-score (-0.5 to 0.5)” is about -0.041, and the highest 2% start at about 0.37. This is one part of the list.
# Molecular target: T1, Ecm22 (UniProt Q05958)
# T1 sequence: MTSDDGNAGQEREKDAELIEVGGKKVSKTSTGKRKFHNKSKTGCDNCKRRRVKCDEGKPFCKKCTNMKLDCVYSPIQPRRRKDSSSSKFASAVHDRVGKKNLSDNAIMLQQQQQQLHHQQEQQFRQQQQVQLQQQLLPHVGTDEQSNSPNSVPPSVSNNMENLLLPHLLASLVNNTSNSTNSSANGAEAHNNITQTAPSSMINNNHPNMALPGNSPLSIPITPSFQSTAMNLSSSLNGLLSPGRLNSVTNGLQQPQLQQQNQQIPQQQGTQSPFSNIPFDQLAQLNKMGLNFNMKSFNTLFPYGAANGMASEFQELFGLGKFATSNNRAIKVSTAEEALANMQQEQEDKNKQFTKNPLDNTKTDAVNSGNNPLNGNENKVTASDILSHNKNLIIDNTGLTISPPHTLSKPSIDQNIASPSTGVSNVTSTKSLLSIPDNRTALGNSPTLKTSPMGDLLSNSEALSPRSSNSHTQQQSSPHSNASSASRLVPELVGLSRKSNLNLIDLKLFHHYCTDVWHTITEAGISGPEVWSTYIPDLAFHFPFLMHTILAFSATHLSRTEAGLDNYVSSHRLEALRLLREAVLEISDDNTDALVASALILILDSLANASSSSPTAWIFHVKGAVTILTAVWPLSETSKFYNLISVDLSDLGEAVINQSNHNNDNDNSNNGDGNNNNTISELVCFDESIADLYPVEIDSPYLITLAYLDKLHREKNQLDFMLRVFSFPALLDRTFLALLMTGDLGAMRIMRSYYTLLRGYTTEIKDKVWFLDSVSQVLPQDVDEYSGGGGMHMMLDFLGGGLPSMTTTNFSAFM
# Assay: PBM E-score (8-mer binding enrichment) (E-score (-0.5 to 0.5)); higher = stronger / more preferred TF binding; most listed sequences are background and not binding sites
# Details: protein concentration: 200 nM; construct: GST-full length
# Method in brief: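 The E-score, a modified Wilcoxon-Mann-Whitney statistic, was computed by the Universal PBM Analysis Suite for every ungapped eight-base word pooled with its reverse complement. Scans behind it were normalised with masliner after bound GST-tagged yeast transcription factors were detected with fluorescent anti-GST. The proteins, at about 100-200 nM, had been applied to universal all-10-mer Agilent arrays made double-stranded by primer extension.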
row,Sequence,PBM E-score
1,GGTTAACA,-0.0609
2,CGCGCGGC,0.225
3,CAAAAAGC,-0.0578
4,ATCTTAAC,0.138
5,AGGTTTAG,-0.0456
6,AACAATTC,-0.301
7,ATTGTCCA,-0.096
8,TATCCCGA,0.0603
9,CAGGTCTC,-0.249
10,GACTGATA,-0.209
11,CGGTACAC,0.0064
12,ACTAACGC,0.0181
13,AACAAGAC,-0.0162
14,AGCTCCGC,-0.0692
15,CTGATGTC,-0.0878
16,ACTGAACC,0.0101
17,AACGGCGA,0.381
18,GGGCATCA,-0.311
19,TAGTTCCA,-0.0504
20,CACTGGGA,-0.188
21,AATATCTG,-0.164
22,AGGGGGGA,-0.0969
23,AATGGTGC,-0.0155
24,ATTCTTCA,0.0132
25,ATTTAACG,0.361

row,Sequence,PBM E-score
1,AATGTTGG,-0.102
2,GAAACCGC,0.0271
3,AAGGGCCT,-0.278
4,CGTAGCCC,0.25
5,GCACTACA,-0.0693
6,ATCGATTA,0.16
7,CCAATGCC,-0.246
8,ACGTATCT,0.088
9,ACTCCTAG,-0.304
10,ATGACACC,-0.179
11,TCGGAACA,0.215
12,GGGGCTGA,-0.0923
13,GAGCGTCC,0.0848
14,AATGGACG,-0.0367
15,AGAGTCGC,0.159
16,GAAACTCC,-0.164
17,CTTTTATC,-0.0345
18,CTTGTCCC,-0.0987
19,ATTTCGAA,0.111
20,GGTGAAAC,0.132
21,ACATGACC,-0.035
22,GTACGAGA,0.482
23,TCAGATCA,-0.33
24,AGTAAGAC,-0.0383
25,ACGCAGAG,0.0359

row,Sequence,PBM E-score
1,GGTTAAGA,-0.0289
2,CAGGCGAC,-0.236
3,AGTGTGGG,-0.217
4,AATGCTAA,-0.0939
5,AGCAAAGG,-0.0124
6,GGCGATTA,0.0187
7,GGCAGATA,0.00792
8,CCCACCGA,0.027
9,CTATCTGA,-0.0516
10,GCCGTCGC,0.229
11,ACGCTTTA,0.142
12,TAATCTGA,-0.217
13,CAGGTCAC,-0.351
14,CGATTTCC,0.15
15,ATGTGCTA,-0.065
16,AACTTGAG,-0.169
17,AGTAACTC,0.0824
18,GTCCCACA,-0.158
19,CATCCACA,-0.215
20,CGACCATC,0.212
21,ATCACGAT,0.0567
22,GTAGTACA,0.0286
23,GGACAGGA,-0.111
24,ACGCTAAG,-0.0825
25,GTGTGAAA,-0.07

row,Sequence,PBM E-score
1,ATCGAAGG,-0.0211
2,GGTATGAA,-0.0181
3,GGGTTGCA,-0.189
4,AAGATTGC,-0.141
5,CTGCGTGA,-0.162
6,CGGTATTC,0.0418
7,AAAGTTAT,0.0679
8,CCAGATAG,-0.186
9,ATGGAGAC,0.0828
10,ATTATATC,0.0802
11,GAGCCCAA,-0.109
12,CTCGAGTC,-0.141
13,CATGCACC,-0.139
14,GGTTAGAA,-0.0363
15,TACTAGAA,-0.0752
16,ATCTCGTA,0.466
17,AACGGAGT,0.197
18,ACGTAAGC,0.0655
19,GCTAGCTA,-0.106
20,CGAGGTGC,0.238
21,GTTGCGTA,0.222
22,CGAAATAC,0.251
23,AAGCTATA,-0.0214
24,GGCTCTAA,-0.0806
25,AGCAAATA,-0.0689

row,Sequence,PBM E-score
1,CAAGGGTC,-0.271
2,CCCGCTTA,0.2
3,GCAGCTCC,-0.129
4,AGGTCAAG,-0.346
5,CGTAACGC,0.329
6,CAGCCATG,-0.0775
7,CGTGCATA,-0.121
8,TTAGATAA,-0.0703
9,TCGGACAA,0.205
10,ATGGTCCA,-0.203
11,GACATCGC,0.0836
12,ATAAGGTG,-0.0576
13,CCCCATCC,0.0357
14,CACAAAAC,0.0438
15,GAATTATC,0.143
16,CTCGTATC,0.478
17,AATCACGA,0.137
18,CAACAGTC,-0.32
19,CGGTTTCC,0.0462
20,CCCTAGGA,-0.223
21,AGGTACAT,0.0134
22,TCTGTCAA,-0.101
23,ATGTCCGC,0.0595
24,CTGTCTGA,-0.206
25,CAATAACA,-0.16

row,Sequence,PBM E-score
1,CCAAGGAC,-0.302
2,CAAGCTGC,-0.191
3,AGTGCTAC,-0.0395
4,AGAATTGC,-0.0838
5,TGAGCAAA,-0.0534
6,TCGATCAA,0.0228
7,AGAACGCA,0.0964
8,CAATATAC,0.271
9,CTCGCGTC,0.255
10,CCGGCGTC,-0.111
11,ACCGCATA,0.0853
12,AGTTGACA,-0.0923
13,ACACCGAT,-0.0233
14,GCTCATCA,-0.207
15,CCTACATC,-0.158
16,ACAGACAC,-0.0505
17,GCCATCCC,-0.216
18,CGTGCTTA,-0.0539
19,ACTATTCT,-0.046
20,GCCGGCCA,-0.194
21,ACTCAACC,-0.0151
22,AATTCCGG,-0.146
23,AGTCAGTC,-0.215
24,GAGCTAAC,-0.0583
25,ACCCCAAT,-0.183

row,Sequence,PBM E-score
1,CGATGCCG,-0.022
2,CCCATCCA,-0.0635
3,CAAAGCAA,0.0515
4,CGAGCGGC,0.129
5,ATAATTTC,-0.128
6,GCTCCTCA,-0.0874
7,AGTCAGTA,0.0758
8,GCCAAACC,-0.169
9,GTGAGACA,-0.198
10,ATCCTATC,-0.176
11,AGTCCTTC,-0.189
12,ATAGGAAA,-0.0768
13,CCGAAGAA,-0.0228
14,ACGAACCC,0.28
15,TATACTCA,0.163
16,TGAGACCA,-0.22
17,ATCTGTTG,-0.132
18,GCGCTATA,0.0306
19,AGCTGCGG,-0.00448
20,CACGTTAA,0.00208
21,ACAGATCG,0.0553
22,AAGCCTAG,-0.114
